Data taken from the antibiotic and cytotoxicity screens of Wong et al. (2023).
This is one part of the list.

Columns and labels:
HSkMC = human skeletal muscle cells; assay: cytotoxicity call (relative viability < 0.9); conditions: 10 µM
HepG2 = assay: cytotoxicity call (relative viability < 0.9); conditions: 10 µM
S. aureus RN4220 = assay: growth inhibition call (relative growth <= 0.2); conditions: 50 µM

Compound | cytotoxicity call (HSkMC) | cytotoxicity call (HepG2) | growth inhibition call (S. aureus RN4220)
CC(C)NC(=O)[C@@]1(C)c2ccccc2C(=O)N(Cc2ccc(OC(F)(F)F)cc2)[C@H]1c1ccc(CO)cc1 | inactive | inactive | inactive
Nc1ccccc1C(=O)CC(N)C(=O)O (centres undefined) | inactive | inactive | inactive
Cc1ccc(S(=O)(=O)N(C)C[C@@H]2OCCCC[C@H](C)Oc3ccc(NC(=O)CCCCCC(=O)Nc4ccccc4N)cc3C(=O)N([C@H](C)CO)C[C@@H]2C)cc1 | inactive | inactive | inactive
COc1ccc(S(=O)(=O)Nc2ccc3c(c2)CC(=O)N([C@@H](C)CO)C[C@H](C)[C@@H](CN(C)S(=O)(=O)c2ccc(OC)cc2)O3)cc1 | inactive | inactive | inactive
COc1ccc(S(=O)(=O)N[C@@H]2CC[C@@H](CC(=O)N3CCN(c4ccccc4)CC3)O[C@H]2CO)cc1 | inactive | inactive | inactive
C[C@H]1CN([C@@H](C)CO)C(=O)c2cccc(NS(=O)(=O)c3ccccc3)c2O[C@H]1CN(C)Cc1ccc(-c2ccccc2)cc1 | inactive | inactive | inactive
C[C@H]1CN([C@@H](C)CO)S(=O)(=O)c2ccc(C#Cc3ccccn3)cc2O[C@@H]1CN(C)Cc1ccccc1 | inactive | inactive | inactive
Cc1c(C(N)=O)sc2[nH]cnc(=O)c12 | inactive | inactive | inactive
O=C(C[C@H]1CC[C@@H]2[C@H](COC[C@@H](O)CN2S(=O)(=O)c2ccc(F)cc2)O1)N[C@H]1CCN(Cc2ccccc2)C1 | inactive | inactive | inactive
Cc1noc(C)c1NC(=O)N(C)C[C@H]1Oc2c(NC(=O)C3CC3)cccc2C(=O)N([C@@H](C)CO)C[C@@H]1C | inactive | inactive | inactive
CCCCCCCCCCCCCCCCCCOC[C@H](COP(=O)(O)O[C@H]1[C@@H](O)[C@@H](O)[C@@H](O)C[C@@H]1OC)OC | inactive | inactive | inactive
C[C@H](CO)N1C[C@H](C)[C@@H](CN(C)C(=O)Nc2ccc(C(F)(F)F)cc2)OCCCC[C@H](C)Oc2ccc(NC(=O)c3ccncc3)cc2C1=O | inactive | inactive | inactive
CC(=O)N1CCc2nc(C(N)=O)sc2CC1 | inactive | inactive | inactive
C[C@@H]1CN([C@H](C)CO)C(=O)Cc2cc(NC(=O)CCC(F)(F)F)ccc2O[C@H]1CN(C)S(C)(=O)=O | inactive | inactive | inactive
CC1=NC[C@H](O)[C@@H](C(=O)O)N1 | inactive | inactive | inactive
C[C@H](CO)N1C[C@H](C)[C@H](CN(C)Cc2ccc(C(F)(F)F)cc2)Oc2ccc(NC(=O)Nc3ccc4c(c3)OCO4)cc2C1=O | inactive | inactive | inactive
CCCN1C[C@H](C)[C@H](OC)CN(C)C(=O)c2ccc(NS(=O)(=O)c3cn(C)cn3)cc2OC[C@H]1C | inactive | inactive | inactive
COc1ccc(NC(=O)Nc2ccc3c(c2)CC(=O)N([C@H](C)CO)C[C@@H](C)[C@H](CN(C)Cc2ccc(Cl)c(Cl)c2)O3)cc1 | inactive | active | inactive
CCNC(=O)C[C@@H]1CC[C@@H](NC(=O)C2CCOCC2)[C@@H](CO)O1 | inactive | inactive | inactive
Cc1noc(C)c1-c1ccc(N)cc1 | inactive | inactive | inactive

Compound | cytotoxicity call (HSkMC) | cytotoxicity call (HepG2) | growth inhibition call (S. aureus RN4220)
COc1ccc(S(=O)(=O)N(C)C[C@@H]2OCCCC[C@H](C)Oc3ccc(NS(=O)(=O)c4cn(C)cn4)cc3C(=O)N([C@H](C)CO)C[C@@H]2C)cc1 | inactive | inactive | inactive
C[C@@H]1CN([C@H](C)CO)C(=O)c2cccc(NC(=O)C3CCOCC3)c2O[C@@H]1CN(C)S(=O)(=O)c1cn(C)cn1 | inactive | inactive | inactive
O=C(O)c1ccc(C(=O)O)nc1 | inactive | inactive | inactive
C[C@H]1CN([C@@H](C)CO)C(=O)Cc2cc(NS(=O)(=O)c3cn(C)cn3)ccc2O[C@H]1CN(C)Cc1ccc(C(=O)Nc2ccccc2N)cc1 | inactive | inactive | inactive
C[C@@H]1CN([C@@H](C)CO)C(=O)c2cc(C#CC3CCCCC3)cnc2O[C@@H]1CN(C)C(=O)c1ccncc1 | inactive | inactive | inactive
C[C@@H]1CCCCO[C@@H](CN(C)S(=O)(=O)c2cccs2)[C@@H](C)CN([C@H](C)CO)C(=O)c2cc(NC(=O)NC3CCCCC3)ccc2O1 | inactive | inactive | inactive
CN(C)CC#Cc1ccc([C@@H]2[C@@H](CO)N3C(=O)CN(C(=O)CN(C)C)C[C@H]23)cc1 | inactive | inactive | inactive
C[C@H]1CN([C@@H](C)CO)C(=O)CCCn2nncc2CO[C@@H]1CN(C)C(=O)C1CC1 | inactive | inactive | inactive
COCC#Cc1ccc2c(c1)O[C@@H](CN(C)C(=O)COC)[C@@H](C)CN([C@@H](C)CO)S2(=O)=O | inactive | inactive | inactive
COCC(=O)Nc1ccc2c(c1)CC(=O)N2 | inactive | inactive | inactive
C[C@@H]1CN([C@@H](C)CO)C(=O)c2cc(NC(=O)Nc3cccc4ccccc34)ccc2O[C@@H]1CN(C)CC1CCCCC1 | inactive | inactive | inactive
C[C@H](CO)N1C[C@H](C)[C@H](CN(C)C(=O)Nc2ccc(F)cc2)Oc2ccc(NC(=O)C3CC3)cc2CC1=O | inactive | inactive | inactive
CC(C)C#Cc1cnc2c(c1)C(=O)N([C@H](C)CO)C[C@H](C)[C@@H](CN(C)S(=O)(=O)c1cn(C)cn1)O2 | inactive | inactive | inactive
O=C1NCCc2c(O)cccc21 | inactive | inactive | inactive
C[C@@H]1CCCCO[C@H](CN(C)C(=O)Nc2ccc(F)cc2)[C@@H](C)CN([C@H](C)CO)C(=O)c2cc(NC(=O)NC3CCCCC3)ccc2O1 | inactive | inactive | inactive
O=C(O)c1cc2c([nH]c1=O)CCCC2 | inactive | inactive | inactive
Cc1noc(C)c1NC(=O)Nc1ccc2c(c1)C(=O)N([C@@H](C)CO)C[C@H](C)[C@@H](CN(C)Cc1ccc(C(F)(F)F)cc1)OCCCC[C@@H](C)O2 | inactive | inactive | inactive
C[C@H](CO)N1C[C@H](C)[C@@H](CN(C)Cc2ccncc2)Oc2c(NS(=O)(=O)c3ccccc3)cccc2C1=O | inactive | inactive | inactive
C[C@H](CO)N1C[C@H](C)[C@@H](CN(C)Cc2ccc3c(c2)OCO3)Oc2ccc(NC(=O)CCCN(C)C)cc2C1=O | inactive | inactive | inactive
C[C@@H]1CCCCO[C@H](CN(C)C(=O)Nc2cccc3ccccc23)[C@H](C)CN([C@H](C)CO)C(=O)c2cc(NC(=O)C3CCCCC3)ccc2O1 | inactive | active | inactive

Compound | cytotoxicity call (HSkMC) | cytotoxicity call (HepG2) | growth inhibition call (S. aureus RN4220)
C[C@@H]1CN([C@H](C)CO)C(=O)c2cc(NS(=O)(=O)c3ccc(Cl)cc3)ccc2O[C@@H](C)CCCCO[C@@H]1CN(C)Cc1ccc(Cl)c(Cl)c1 | inactive | active | inactive
C[C@@H]1CN([C@H](C)CO)C(=O)c2cc(NC(=O)Cn3cnnn3)ccc2O[C@H]1CN(C)C(=O)NC1CCCCC1 | inactive | inactive | inactive
NCC[C@@H]1CC[C@H](NC(=O)C2CC2)[C@H](CO)O1 | inactive | inactive | inactive
Cc1cc(C(=O)Nc2cccc3c2O[C@H](CN(C)S(=O)(=O)c2ccccc2)[C@H](C)CN([C@@H](C)CO)C3=O)n(C)n1 | inactive | inactive | inactive
CO[C@@H](CN(C)S(=O)(=O)c1ccc(C)cc1)[C@H](C)CN([C@@H](C)CO)S(=O)(=O)c1cccc(Cl)c1 | inactive | inactive | inactive
Cc1ccc(S(=O)(=O)N2C[C@@H](O)COC[C@@H]3O[C@@H](CC(=O)N[C@@H]4CCN(Cc5ccccc5)C4)CC[C@H]32)cc1 | inactive | inactive | inactive
C[C@@H]1CN([C@H](C)CO)C(=O)CCCn2cc(nn2)CO[C@@H]1CN(C)C(=O)Nc1ccnc(N2CCOCC2)c1 | inactive | inactive | inactive
CN(C)CC(=O)N[C@H]1CC[C@H](CCNS(=O)(=O)c2ccccc2)O[C@H]1CO | inactive | inactive | inactive
C#CCCCCCCCCCCCC(O)CC(O)CO.C=CCCCCCCCCCCCC(O)CC(O)CO (centres undefined) | inactive | inactive | inactive
Cc1ccc(S(=O)(=O)N(C)C[C@@H]2Oc3ncc(C#Cc4ccc(F)cc4)cc3C(=O)N([C@H](C)CO)C[C@@H]2C)cc1 | inactive | inactive | inactive
Cc1noc(C)c1NC(=O)Nc1ccc2c(c1)C(=O)N([C@H](C)CO)C[C@H](C)[C@H](CN(C)Cc1ccc(C(F)(F)F)cc1)OCCCC[C@H](C)O2 | inactive | inactive | inactive
CC(=O)N[C@@H](Cc1cccc(F)c1)C(=O)O | inactive | inactive | inactive
COc1ccc(S(=O)(=O)N(C)C[C@@H]2OCCCC[C@@H](C)Oc3ccc(NC(=O)CCCCCC(=O)Nc4ccccc4N)cc3C(=O)N([C@H](C)CO)C[C@@H]2C)cc1 | inactive | inactive | inactive
COc1ccc(CN(C)C[C@@H]2OCCCC[C@@H](C)Oc3ccc(NC(=O)Nc4ccc(OC)cc4)cc3C(=O)N([C@H](C)CO)C[C@@H]2C)cc1 | inactive | inactive | inactive
COCC#Cc1ccc2c(c1)O[C@@H](CN(C)C(=O)COC)[C@H](C)CN([C@@H](C)CO)S2(=O)=O | inactive | inactive | inactive
O=C(Cc1ccccn1)NCC[C@@H]1CC[C@H](NC(=O)CN2CCOCC2)[C@@H](CO)O1 | inactive | inactive | inactive
C[C@H](CO)N1C[C@H](C)[C@@H](CN(C)S(=O)(=O)c2cn(C)cn2)Oc2c(NC(=O)C3CCCCC3)cccc2C1=O | inactive | inactive | inactive
C[C@@H]1CN([C@H](C)CO)C(=O)Cc2cc(NS(=O)(=O)c3ccc(Cl)cc3)ccc2O[C@H]1CN(C)C(=O)Nc1cccc2ccccc12 | inactive | inactive | inactive
